One molecule from PubChem BioAssay AID326 (DTP/NCI, 2004) can be followed below.

Toxic doses and inconclusive results are not listed. Some entries of the source have several records that differ or are many. Only these are listed. The source may hold further records. Values given together differ for a reason that is not stated; some may be repeats, others may stem from another dose, organism or construct than stated.

For this assay, the system named is CD2F1 mice, P388/DHAQ leukemia ip, median survival T/C. In words: NCI In Vivo Anticancer Drug Screen. Data for tumor model P388 Leukemia resistant to Dihydroxy Anthracenedione; NSC 299195 (intraperitoneal) in CD2F1 (CDF1) mice. As to conditions: endpoint: median survival time, schedule: Q04DX003 (ip), vehicle: saline with Tween-80, higher = longer survival. As to the method:
The antitumor activity of compounds was measured in mice bearing transplantable tumors. Survival or tumor size were measured and the results are expressed as the measurement made in the treated group (T) divided by the measurement made in the vehicle treated control group (C). The tumor model used in this assay is P388 Leukemia resistant to Dihydroxy Anthracenedione; NSC 299195 (intraperitoneal) in CD2F1 (CDF1) mice

For the molecule `Cc1c2ccncc2c(C)c2c1[nH]c1ccccc12`, the T/C reads like this: (dose: 21.6 mg/kg/injection) 102 % of control, 118 % of control, 169 % of control; (dose: 36.0 mg/kg/injection) 112 % of control and 184 % of control; (dose: 100.0 mg/kg/injection) 112 % of control and 161 % of control.
